Measurements: PubChem BioAssay AID624417 (National Center for Advancing Translational Sciences (NCATS), 2012)
Among all 410,000 compounds or so, about 6,400 (1.6%) were called active. This list was built around the results that the source calls inconclusive (neither active nor inactive); the mix of calls is not that of the screen. Calls follow the shape of the dose curve; as a rule, active = well fitted inhibition curve with a large enough effect; inconclusive = small, poorly fitted or top-dose-only effect; inactive = no such curve, though single readings can be large or run the other way. Potencies of inconclusive entries are left out as doubtful fits.

Target: Glucagon-like peptide 1 receptor (Homo sapiens) (UniProt P43220)
Sequence of UniProt P43220 (P43220 whole entry, looked up): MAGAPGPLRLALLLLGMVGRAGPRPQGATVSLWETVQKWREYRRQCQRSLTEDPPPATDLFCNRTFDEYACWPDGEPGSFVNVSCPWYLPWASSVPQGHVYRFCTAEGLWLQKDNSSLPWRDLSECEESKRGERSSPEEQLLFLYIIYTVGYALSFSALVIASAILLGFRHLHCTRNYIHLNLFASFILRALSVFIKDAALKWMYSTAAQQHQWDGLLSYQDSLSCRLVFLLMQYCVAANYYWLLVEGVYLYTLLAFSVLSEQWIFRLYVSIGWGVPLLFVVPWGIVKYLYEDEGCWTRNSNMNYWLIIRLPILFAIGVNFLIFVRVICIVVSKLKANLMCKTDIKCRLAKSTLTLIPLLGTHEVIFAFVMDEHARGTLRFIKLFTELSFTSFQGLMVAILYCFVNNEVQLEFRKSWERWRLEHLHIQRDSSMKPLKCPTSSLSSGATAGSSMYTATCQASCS
Assay: qHTS of GLP-1 Receptor Inverse Agonists (Inhibition Mode); also: nearly all actives have a fitted effect of over 55% in size
Settings: HEK293 GLP-1R CRE-luciferase, luminescence, 24 h, GLP-1R form is constitutively active; activity change, negative = inhibition: at 38.3 µM (top of the series) unless noted
In short: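 Seeding at 200 cells/uL, 12 h culture, 24 hr compound treatment, then luciferase reagent and a luminescence read; cells are HEK293 stably expressing a constitutively active GLP-1R plus cAMP-responsive luciferase.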
% is scaled to controls: 0 for no effect and ±100 for the full control effect; potency is read from the fitted curve at half-maximal effect; tags tell the direction and shape of the fitted curve.

Row | Structure (SMILES) | Potency | activity change, negative = inhibition
1 | O=c1n(Cc2ccccc2)c2cc(Cl)cnc2n1Cc1ccccc1 | inconclusive [inhibitor, full curve, poor fit] | –
2 | COc1cc(OC)cc(C(=O)N[C@H](C(=O)Nc2nc3ccc(S(C)(=O)=O)cc3s2)C(C)C)c1 | inactive | –
3 | Cc1cccc(NC(=S)N(CCCN2CCOCC2)C(C)c2cc3ccccc3o2)c1 (stereo unspecified) | inconclusive [inhibitor, single point] | –
4 | CN(C)Cc1ccccc1Sc1ccc(O)cc1O | inconclusive [inhibitor, single point] | –
5 | S=c1[nH]nc(C2CCCCC2)n1/N=C/C=C/c1ccccc1 | inconclusive [inhibitor, partial curve, poor fit] | –
6 | COc1ccccc1N1CCN(S(=O)(=O)CCNC(=O)c2cc(OC)c(OC)c(OC)c2)CC1 | inconclusive [inhibitor, partial curve, poor fit] | –
7 | COc1ccc(Cn2c(SCc3ccc(C(=O)NCc4ccccc4F)cc3)nc3cccnc32)cc1 | inactive | –
8 | COc1ccc2nc(SCC(=O)NC3CCCCC3C)[nH]c2c1 (stereo unspecified) | inconclusive [inhibitor, full curve, poor fit] | –
9 | CC(C)N(C(=O)[C@H]1C[C@H](CC(=O)NCc2cccc(C(F)(F)F)c2)C(=O)N2CCc3c([nH]c4cc(-c5ccco5)ccc34)[C@]12C)C(C)C | inconclusive [inhibitor, partial curve, poor fit] | –
10 | O=C(CCN1CCc2ccccc2C(c2ccccc2)C1)c1ccc2c(c1)OCCO2 (stereo unspecified) | inconclusive [inhibitor, partial curve, poor fit] | –
11 | CC(C)C[C@H]1CNC(=S)N1C[C@H]1CCCN1C[C@H](Cc1ccc(O)cc1)N1C[C@H](Cc2ccccc2)N(CC2CCCCCC2)C1=S | inconclusive [inhibitor, single point] | –
12 | O=C(Nc1ccc(C(=O)N2CCOCC2)cc1)Nc1cccc(C(F)(F)F)c1 | inconclusive [inhibitor, partial curve, poor fit] | –
13 | N#Cc1ccc(C(=O)N2CCCCC2c2cc(C(=O)Nc3cccc(C#N)c3)no2)cc1 (stereo unspecified) | inactive | –
14 | O=C(CN1CCN(c2ccc(O)cc2)CC1)N1CCc2ccccc21 | inconclusive [inhibitor, partial curve, poor fit] | –
15 | COC(=O)c1ccc(Nc2cc(C)nc3ccc(C)cc23)cc1 | active: 10 µM | –
16 | COc1ccc(NC(=O)CN(C)S(=O)(=O)c2ccc3[nH]c4c(c3c2)CCCC4)cc1Cl | inconclusive [inhibitor, single point] | –
17 | CCOc1ccccc1NC(=O)CN1CCC(NC(=O)Nc2ccccc2)CC1 | inconclusive [inhibitor, single point] | –
18 | C=C1CSc2nc(=O)c3c(C)c(C)sc3n21 | inactive | –
19 | CCOc1ccccc1C1CC(c2ccc(Br)cc2)Nc2nc(N)nn21 (stereo unspecified) | inconclusive [inhibitor, partial curve, poor fit] | –
20 | Cc1cccc(-c2cnc(C(O)c3ccc(Cl)cc3C)[nH]2)c1 (stereo unspecified) | inconclusive [inhibitor, single point] | –
21 | COc1ccc(CCNC(=O)CCc2c(C)nc3nc(C)nn3c2C)cc1OC | inactive | –

Row | Structure (SMILES) | Potency | activity change, negative = inhibition
22 | N#CC1=C(N)Oc2c(oc(CO)cc2=O)C1c1ccccc1[N+](=O)[O-] (stereo unspecified) | inactive | –
23 | CCOC(=O)CSC1=NC(=O)/C(=C/c2ccc(Br)cc2)S1 | inactive | –
24 | COc1ccc(C(=O)COC(=O)c2ccccc2C(=O)N(C)c2ccccc2)c(OC)c1 | inconclusive [inhibitor, single point] | –
25 | C/C=C/C(=O)Nc1ccc(N2CCN(c3ccc(C(F)(F)F)cn3)CC2)nc1 | inconclusive [inhibitor, partial curve, poor fit] | –
26 | CC1(C(=O)NS(=O)(=O)C2CC2)CCCN(C(=O)c2ccc(C(F)(F)F)cc2)C1 (stereo unspecified) | inactive | –
27 | CC(C(=O)NC1CCCCCC1)c1ccc([N+](=O)[O-])cc1 (stereo unspecified) | inconclusive [inhibitor, single point] | –
28 | Cc1nccn1CCN(C)Cc1cn(Cc2ccccc2)nc1-c1ccc2c(c1)OCO2 | inconclusive [inhibitor, partial curve, poor fit] | –
29 | Cc1ccc(/C(N)=N/OC(=O)CSc2ccccc2)cc1 | inactive | –
30 | COc1ccc(-c2cc(C(=O)NCc3ccc(C(F)(F)F)cc3)[nH]n2)c(C)c1 | inconclusive [inhibitor, single point] | –
31 | CC(C)c1ccc(NC(=O)CSc2nc3ccccc3nc2N2CCCC2)cc1 | inconclusive [inhibitor, full curve, poor fit] | –
32 | Cc1nn(C(C)(C)C)c(OC(=O)C2CCCC2)c1S(=O)(=O)c1ccccc1 | inconclusive [inhibitor, single point] | –
33 | Cc1ccccc1C(=O)N/N=C/c1cccc2ccccc12 | inconclusive [inhibitor, single point] | –
34 | Oc1c(Br)cc(Br)cc1/C=N/N1CCN(Cc2ccccc2)CC1 | inactive | –
35 | COc1ccccc1NC(=O)Nc1nc(CC(=O)Nc2cccc(F)c2)cs1 | inconclusive [inhibitor, partial curve, poor fit] | –
36 | O=C1NC(Cc2c[nH]c3ccccc23)C(=O)N1Cc1ccc(CN2C(=O)NC(Cc3c[nH]c4ccccc34)C2=O)cc1 (stereo unspecified) | inconclusive [inhibitor, partial curve, poor fit] | –
37 | C[C@@]12C(=O)Nc3cc(F)c(F)cc3C(=O)N1[C@H]1c3cc(Cl)ccc3OC[C@@H]1[C@@H]2c1ccccc1 | inconclusive [inhibitor, partial curve, poor fit] | –
38 | O=C(NCc1ccccc1)c1cccc(S(=O)(=O)N2CCCCC2)c1 | inconclusive [inhibitor, single point] | –
39 | C[C@@H]1CN([C@H](C)CO)C(=O)c2cccc(NC(=O)Nc3ccc(F)cc3)c2O[C@H]1CN(C)C(=O)Nc1ccc(C(F)(F)F)cc1 | inconclusive [inhibitor, partial curve, poor fit] | –
40 | CCCCC(c1nnnn1CCOC)N1CCN(Cc2ccccc2)CC1 (stereo unspecified) | inactive | –
41 | CCN1CCN(CCCNC(=O)c2cc3c(=O)oc4ccc(C)cc4c3s2)CC1 | inconclusive [inhibitor, single point] | –
42 | CC1CCc2sc(C(=O)NC3CCN(Cc4ccccc4)CC3)cc2C1 (stereo unspecified) | inconclusive [inhibitor, partial curve, poor fit] | –

Row | Structure (SMILES) | Potency | activity change, negative = inhibition
43 | Cc1ccccc1-c1nc(CN2CCC(C(=O)NCCN3CCOCC3)CC2)c(C)o1 | inconclusive [inhibitor, partial curve, poor fit] | –
44 | CC(C)(C)OC(=O)C[C@@H]1C/C=C\C[C@H](CC(=O)N(CCO)Cc2ccccc2)C(=O)NC[C@@H](c2ccccc2)OC1=O | inactive | –
45 | CCOc1ccc2oc(C(=O)NC(C)(C)CC)c(C)c2c1 | inconclusive [inhibitor, partial curve, poor fit] | –
46 | O=S(CC(O)COCc1ccc(Cl)cc1)c1ccccn1 (stereo unspecified) | inactive | –
47 | COc1ccc(N=C(C)C2C(=O)c3ccccc3C2=O)cc1 | inconclusive [inhibitor, full curve] | –
48 | Cn1cc(/C=N/n2cnc3scc(-c4ccccc4)c3c2=O)c2ccccc21 | active: 5.01 µM | –
49 | CC(C)(C)NC(=O)COC(=O)c1ccccc1Oc1ccccc1 | inconclusive [inhibitor, single point] | –
50 | O=C(c1ccc(S(=O)(=O)Nc2ccccc2)cc1)N1CCCCCCC1 | inconclusive [inhibitor, partial curve, poor fit] | –
51 | COC(=O)c1sccc1NC(=S)N1CCCCC1C (stereo unspecified) | inconclusive [inhibitor, single point] | –
52 | C=CCC[C@@H](Cc1ccc(F)cc1)C(=O)OC[C@@H](C)NC(=O)[C@@H](CC=C)CC(=O)N[C@H](CO)Cc1ccccc1 | inconclusive [inhibitor, single point] | –
53 | COc1ccccc1CN(C)C(=O)C(NC(=O)Cc1cccc2ccccc12)C(C)C (stereo unspecified) | active: 10 µM | –
54 | COc1ccc(NC(=O)Nc2nnc(N(C)C3CCCCC3)s2)c(OC)c1 | inconclusive [inhibitor, partial curve, poor fit] | –
55 | O=C(/C=C/c1ccco1)NC(=S)Nc1cc(C(F)(F)F)ccc1N1CCOCC1 | inconclusive [inhibitor, partial curve, poor fit] | –
56 | CCOc1ccc(NC(C)c2cc(Cl)ccc2O)cc1 (stereo unspecified) | inconclusive [inhibitor, partial curve, poor fit] | –
57 | CC1CCN(C2=NC(=O)/C(=C/c3ccccc3F)S2)CC1 | – | inconclusive: -85.8% [inhibitor]
58 | N#CCCN1CCCc2cc(N=Nc3ccc(C(F)(F)F)cc3)ccc21 | inconclusive [inhibitor, partial curve, poor fit] | –
59 | CCc1nc2ccc(C(=O)Nc3cc(-c4ccccc4)ccc3OC)cn2c1N(C=O)CCC(C)C | inconclusive [inhibitor, single point] | –
60 | CCc1nc2ccc(C(=O)N3CCN(c4ccccc4)CC3)cn2c1N(C)CCCc1ccccc1 | inconclusive [inhibitor, single point] | –
61 | Cc1ccccc1CSCCNC(=S)Nc1ccccc1 | inconclusive [inhibitor, partial curve, poor fit] | –
